# Test results reported in a collection of fitness landscapes (doi:10.1016/j.celrep.2020.107928).
# In all, about 81,000 sequences were measured (“one-hybrid fitness for binding NBS DNA”: median about -0.1, highest 2% from about 0.36 on). The list shows a part of the results.
# B1: Caulobacter ParB omega fusion; a variant is named by its letters at X, in order, B8GW30 (parent)
# chain: MESVVVGEPGMSEGRRGLGRGLSALLGEVDAAPAQAPGEQLGGSREAPIEILQRNPDQPRRTFREEDLEDLSNSIREKGVLQPILVRPSPDTAGEYQIVAGERAWRAAQRAGLKTVPIMVRELDDLAVLEIGIIENVQRADLNVLEEALSYKVLMEKFERTQENIAQTIGKSXSHVANXMRLLXLPDEVQSYLVSGELTAXHARAIAAAADPVALAKQIIEGGLSVRETEALARKAPNLSAGKSKGGRPPRVKDTDTQALESDLSSVLGLDVSIDHRGSTGTLTITYATLEQLDDLCNRLTRGI
# Variants of: B1
# Experiment: one-hybrid fitness for binding NBS DNA (the Noc-binding site; scaled: cognate 1, non-cognate 0); higher = stronger binding
# Details: with NBS DNA site
# Procedure, shortened: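 Fitness here means the log change in variant-to-wild-type read ratio between plasmids sequenced before and after selection. That scale was set so cognate equals 1 and non-cognate equals 0. The selection was a bacterial one-hybrid screen of Caulobacter ParB libraries, four specificity codons randomised, in E. coli USO carrying a HIS3 reporter with the site 19 bp from the promoter, grown 48 hours at 37°C on M9-minus-histidine with 0.1 mM IPTG and 5 mM 3-AT.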
row,Variant,one-hybrid fitness for binding NBS DNA
1,RAVW,≤ 0.2
2,GDRS,≤ 0.2
3,TWLT,≤ 0.2
4,TKVR,≤ 0.2
5,YRDG,≤ 0.2
6,PIPY,≤ 0.2
7,ALKP,≤ 0.2
8,PKSC,≤ 0.2
9,PIAD,≤ 0.2
10,AYHC,≤ 0.2
11,PSFS,≤ 0.2
12,QGFS,≤ 0.2
13,QPVN,≤ 0.2
14,KEGR,≤ 0.2
15,SWSY,≤ 0.2
16,NWWR,≤ 0.2
17,AYSK,≤ 0.2
18,LARS,≤ 0.2
19,PRCY,≤ 0.2
20,AFEI,≤ 0.2
21,YPGQ,≤ 0.2
22,IRKT,0.471
23,YQHT,≤ 0.2
24,KNNN,≤ 0.2
25,WCVG,≤ 0.2

row,Variant,one-hybrid fitness for binding NBS DNA
1,YAHV,≤ 0.2
2,KPWT,≤ 0.2
3,WHFS,≤ 0.2
4,IYRA,≤ 0.2
5,ILIR,≤ 0.2
6,CPTL,≤ 0.2
7,ACIR,≤ 0.2
8,RWVS,≤ 0.2
9,ITGA,≤ 0.2
10,TILR,≤ 0.2
11,PDGM,≤ 0.2
12,VRVY,≤ 0.2
13,PSRE,≤ 0.2
14,MSWR,≤ 0.2
15,SCHL,≤ 0.2
16,RYAI,≤ 0.2
17,YYDS,≤ 0.2
18,QGHR,0.239
19,TTYA,≤ 0.2
20,CIDS,≤ 0.2
21,QNTR,0.223
22,APVW,≤ 0.2
23,MDNS,≤ 0.2
24,EQKR,≤ 0.2
25,YRPP,≤ 0.2

row,Variant,one-hybrid fitness for binding NBS DNA
1,DGTT,≤ 0.2
2,RKQT,0.606
3,KTYR,≤ 0.2
4,VMRR,0.261
5,YSST,≤ 0.2
6,YHGF,≤ 0.2
7,RWYD,≤ 0.2
8,RIHA,≤ 0.2
9,QKAS,0.498
10,KVSI,≤ 0.2
11,QAWK,≤ 0.2
12,HSPM,≤ 0.2
13,WMFS,≤ 0.2
14,HIFG,≤ 0.2
15,TDIG,≤ 0.2
16,NKPY,≤ 0.2
17,PCVE,≤ 0.2
18,PLSI,≤ 0.2
19,QSDT,0.32
20,SQPY,≤ 0.2
21,DTRD,≤ 0.2
22,RSKY,0.29
23,ILCG,≤ 0.2
24,SMDT,≤ 0.2
25,RKVV,≤ 0.2

row,Variant,one-hybrid fitness for binding NBS DNA
1,GTGV,≤ 0.2
2,FAST,≤ 0.2
3,CLVG,≤ 0.2
4,ILKL,≤ 0.2
5,LHDV,≤ 0.2
6,FHCS,≤ 0.2
7,SSSF,≤ 0.2
8,EGRH,≤ 0.2
9,ITES,≤ 0.2
10,VRGL,≤ 0.2
11,PQEL,≤ 0.2
12,QMQL,≤ 0.2
13,PYTV,≤ 0.2
14,QWPE,≤ 0.2
15,PNQM,≤ 0.2
16,LSGW,≤ 0.2
17,RYVV,≤ 0.2
18,TARR,0.209
19,PTIV,≤ 0.2
20,YLAK,≤ 0.2
21,CVCR,≤ 0.2
22,NYHK,≤ 0.2
23,LAGV,≤ 0.2
24,GLTC,≤ 0.2
25,IGTG,≤ 0.2

row,Variant,one-hybrid fitness for binding NBS DNA
1,TSFA,≤ 0.2
2,KMTC,≤ 0.2
3,HSGV,≤ 0.2
4,SGDR,≤ 0.2
5,DNCG,≤ 0.2
6,RVCD,≤ 0.2
7,VSRA,≤ 0.2
8,IMRL,≤ 0.2
9,LTTG,≤ 0.2
10,NAER,≤ 0.2
11,QVNI,≤ 0.2
12,AKHC,≤ 0.2
13,GTTG,≤ 0.2
14,SFLV,≤ 0.2
15,TIKD,≤ 0.2
16,QNWS,≤ 0.2
17,SSFS,≤ 0.2
18,SFKG,≤ 0.2
19,CTHM,≤ 0.2
20,DYRN,≤ 0.2
21,TWEM,≤ 0.2
22,NRPY,≤ 0.2
23,FRNK,≤ 0.2
24,RNHV,≤ 0.2
25,MNKS,≤ 0.2

row,Variant,one-hybrid fitness for binding NBS DNA
1,QRRY,0.718
2,NTHC,≤ 0.2
3,ENYE,≤ 0.2
4,CIWS,≤ 0.2
5,MSPK,≤ 0.2
6,VVPT,≤ 0.2
7,TGIG,≤ 0.2
8,VHLY,≤ 0.2
9,CVTR,≤ 0.2
10,MHLG,≤ 0.2
11,RHQD,≤ 0.2
12,MRFS,≤ 0.2
13,RQRR,0.717
14,QYGY,≤ 0.2
15,EITT,≤ 0.2
16,FTQL,≤ 0.2
17,FRQR,≤ 0.2
18,ENVR,≤ 0.2
19,VPEL,≤ 0.2
20,KDPS,≤ 0.2
21,YRES,≤ 0.2
22,HAIF,≤ 0.2
23,TRVY,≤ 0.2
24,ATAN,≤ 0.2
25,NHNE,≤ 0.2

row,Variant,one-hybrid fitness for binding NBS DNA
1,NERR,≤ 0.2
2,MARY,≤ 0.2
3,WMTM,≤ 0.2
4,SRRW,≤ 0.2
5,RGSH,≤ 0.2
6,DAMD,≤ 0.2
7,TFYE,≤ 0.2
8,PYKQ,≤ 0.2
9,GMNL,≤ 0.2
10,PHTP,≤ 0.2
11,RNDL,≤ 0.2
12,TTCC,≤ 0.2
13,SAPK,≤ 0.2
14,SYFM,≤ 0.2
15,FPVL,≤ 0.2
16,NHHK,≤ 0.2
17,YFYM,≤ 0.2
18,QNLE,≤ 0.2
19,MPPW,≤ 0.2
20,EGLM,≤ 0.2
21,RGRN,≤ 0.2
22,MTHV,≤ 0.2
23,SVSG,≤ 0.2
24,GHST,≤ 0.2
25,PVEY,≤ 0.2

row,Variant,one-hybrid fitness for binding NBS DNA
1,KAEG,≤ 0.2
2,IWTI,≤ 0.2
3,IYTN,≤ 0.2
4,NQIS,≤ 0.2
5,SSHC,≤ 0.2
6,TMQE,≤ 0.2
7,NKTL,≤ 0.2
8,TYWS,≤ 0.2
9,DRPM,≤ 0.2
10,WQLY,≤ 0.2
11,TEKV,≤ 0.2
12,YDLI,≤ 0.2
13,RNSK,≤ 0.2
14,GCKE,≤ 0.2
15,GYMT,≤ 0.2
16,HANS,≤ 0.2
17,PPYR,≤ 0.2
18,LHCL,≤ 0.2
19,HNVL,≤ 0.2
20,QQPQ,≤ 0.2
